PubChem BioAssay AID504333 (National Center for Advancing Translational Sciences (NCATS), 2011)
Screen size: about 360,000 compounds; about 16,000 (4.4%) were called active. Inconclusive results, whose numbers are uncertain, are shown with a selection of clear calls. Calls follow the shape of the dose curve; as a rule, active = well fitted inhibition curve with a large enough effect; inconclusive = small, poorly fitted or top-dose-only effect; inactive = no such curve, though single readings can be large or run the other way. A potency beside an inconclusive call is a rough fit, not a confirmed value.

Target: Bromodomain adjacent to zinc finger domain protein 2B (Homo sapiens) (UniProt Q9UIF8)
Chain of UniProt Q9UIF8 (Q9UIF8 whole entry, looked up, the tested form may be a part): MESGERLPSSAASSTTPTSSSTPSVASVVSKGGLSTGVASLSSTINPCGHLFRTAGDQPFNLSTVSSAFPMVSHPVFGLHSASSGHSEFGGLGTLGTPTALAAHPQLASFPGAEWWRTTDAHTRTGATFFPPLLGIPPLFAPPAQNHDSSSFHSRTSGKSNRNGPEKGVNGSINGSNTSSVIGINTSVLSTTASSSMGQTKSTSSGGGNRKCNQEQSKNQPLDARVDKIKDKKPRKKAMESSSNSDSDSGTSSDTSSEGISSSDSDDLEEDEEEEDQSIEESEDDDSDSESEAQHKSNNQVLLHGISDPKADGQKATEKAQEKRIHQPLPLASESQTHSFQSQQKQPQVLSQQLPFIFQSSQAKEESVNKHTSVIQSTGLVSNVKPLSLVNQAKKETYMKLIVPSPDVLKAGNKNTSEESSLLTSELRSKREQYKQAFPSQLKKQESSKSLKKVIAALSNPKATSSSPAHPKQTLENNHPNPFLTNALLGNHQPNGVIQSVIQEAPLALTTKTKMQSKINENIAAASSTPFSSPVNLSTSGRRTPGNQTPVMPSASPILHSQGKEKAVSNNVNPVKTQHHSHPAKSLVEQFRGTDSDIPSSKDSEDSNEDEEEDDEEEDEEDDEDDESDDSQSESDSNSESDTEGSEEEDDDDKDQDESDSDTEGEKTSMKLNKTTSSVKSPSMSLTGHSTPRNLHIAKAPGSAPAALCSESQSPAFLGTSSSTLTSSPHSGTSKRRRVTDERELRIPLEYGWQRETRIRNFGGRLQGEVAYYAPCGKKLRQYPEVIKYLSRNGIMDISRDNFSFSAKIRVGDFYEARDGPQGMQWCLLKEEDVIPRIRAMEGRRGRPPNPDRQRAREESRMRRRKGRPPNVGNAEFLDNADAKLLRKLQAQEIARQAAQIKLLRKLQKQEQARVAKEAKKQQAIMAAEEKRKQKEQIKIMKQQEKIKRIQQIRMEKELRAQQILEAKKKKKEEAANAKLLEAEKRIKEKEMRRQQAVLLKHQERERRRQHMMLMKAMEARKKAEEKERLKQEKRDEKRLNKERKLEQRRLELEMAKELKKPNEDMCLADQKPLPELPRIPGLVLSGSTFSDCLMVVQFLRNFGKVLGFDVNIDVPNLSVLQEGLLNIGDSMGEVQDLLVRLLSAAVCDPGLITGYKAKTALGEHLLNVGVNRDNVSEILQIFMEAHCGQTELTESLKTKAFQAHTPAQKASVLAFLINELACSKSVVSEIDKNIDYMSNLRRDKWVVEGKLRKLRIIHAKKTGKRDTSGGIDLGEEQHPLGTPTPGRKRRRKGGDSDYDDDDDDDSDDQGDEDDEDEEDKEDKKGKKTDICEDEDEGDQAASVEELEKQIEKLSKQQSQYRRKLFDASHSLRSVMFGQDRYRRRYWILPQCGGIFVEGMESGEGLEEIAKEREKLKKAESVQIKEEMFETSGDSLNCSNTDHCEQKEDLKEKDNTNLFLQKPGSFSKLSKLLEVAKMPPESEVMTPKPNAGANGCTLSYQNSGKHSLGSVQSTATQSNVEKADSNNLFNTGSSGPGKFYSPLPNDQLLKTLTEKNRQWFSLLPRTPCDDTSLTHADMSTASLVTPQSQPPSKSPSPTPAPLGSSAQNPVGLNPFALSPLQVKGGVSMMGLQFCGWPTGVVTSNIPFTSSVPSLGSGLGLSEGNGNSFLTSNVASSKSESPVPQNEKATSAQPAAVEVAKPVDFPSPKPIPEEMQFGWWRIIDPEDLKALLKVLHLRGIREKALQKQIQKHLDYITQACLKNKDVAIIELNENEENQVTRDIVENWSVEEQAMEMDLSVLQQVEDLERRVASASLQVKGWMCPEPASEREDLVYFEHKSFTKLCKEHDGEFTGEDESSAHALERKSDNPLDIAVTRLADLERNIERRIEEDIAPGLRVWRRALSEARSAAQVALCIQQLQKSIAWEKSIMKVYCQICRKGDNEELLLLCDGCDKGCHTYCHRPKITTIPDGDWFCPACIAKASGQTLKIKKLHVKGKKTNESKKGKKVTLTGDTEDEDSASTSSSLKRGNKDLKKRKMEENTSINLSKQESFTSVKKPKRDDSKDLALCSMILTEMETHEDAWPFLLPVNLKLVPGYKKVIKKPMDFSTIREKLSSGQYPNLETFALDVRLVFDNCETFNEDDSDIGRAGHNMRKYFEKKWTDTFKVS
Assay: qHTS Assay for Inhibitors of BAZ2B; also: nearly all actives have a fitted effect of over 60% in size
Settings: AlphaScreen BAZ2B-H3K14Ac peptide displacement; activity change, negative = inhibition: at 114 µM (top of the series)
Outline: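 Complex of BAZ2B and biotin-H3K14Ac (50 nM apiece) forms over 30 min at RT, then faces library compounds up to 110 uM for another 30 min; AlphaScreen beads added, 20 min dark incubation, luminescence read.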
% is scaled to controls: 0 for no effect and ±100 for the full control effect; potency is read from the fitted curve at half-maximal effect; tags tell the direction and shape of the fitted curve.

| SMILES | Potency | activity change, negative = inhibition |
| --- | --- | --- |
| COc1cc(C=Nc2cccc(C)c2)c(O)c([N+](=O)[O-])c1 | active: 50.1 µM | – |
| COc1ccc(CCN2CCCC(CN(C)C(=O)c3ccoc3)C2)cc1 (stereo unspecified) | – | inactive: -17.9% |
| COc1ccc(Cl)cc1NC(=O)c1c(NCc2cccnc2)sc2c1CCCC2 | inconclusive: 35.5 µM [inhibitor, full curve, poor fit] | – |
| COc1ccc2c(c1O)Cc1ccccc1C2=O | inconclusive: 79.4 µM [inhibitor, partial curve] | – |
| CCOC(=O)CSC1=C(C#N)C(c2ccc(OC)cc2)C2=C(CC(C)(C)CC2=O)N1 (stereo unspecified) | – | inactive: -27.3% |
| CCOc1ccc(/C(O)=C2/C(=O)C(=O)N(c3ccccn3)C2c2ccc(Cl)cc2)c(C)c1 (stereo unspecified) | inconclusive: 70.8 µM [inhibitor, single point] | – |
| CCCC(=O)Nc1ccc2nc(SCCOc3ccccc3)sc2c1 | inconclusive: 79.4 µM [inhibitor, single point] | – |
| CCOC(=O)c1c(CS(=O)(=O)c2ccccc2)n(C)c2cc(Br)c(O)c(CN(C)C)c12 | – | inactive: 19.4% |
| NC(=O)CCCCC(=O)OCCCc1cccs1 | inconclusive: 89.1 µM [inhibitor, single point] | – |
| O=C(CN(C(=O)Cn1nnc(-c2ccccc2F)n1)c1cnc2ccccc2c1)NCC1CCCO1 (stereo unspecified) | inconclusive: 100 µM [inhibitor, single point] | – |
| CC(=O)Oc1cccc2c1C(=O)c1c(OC(C)=O)cc(C(=O)O)cc1C2=O | inconclusive: 56.2 µM [inhibitor, partial curve] | – |
| CCCC(=O)N1c2ccccc2C(=C2SC(C(=O)OC)=C(C(=O)OC)S2)C(=S)C1(C)C | active: 5.62 µM | – |
| CC(=O)N1C(=O)/C(=C2\SC(=S)N(c3c(C)n(C)n(-c4ccccc4)c3=O)C2=O)c2ccccc21 | – | inactive: -34.2% |
| COC(=O)c1[nH]c2ccc(C)cc2c1NC(=O)CN1CCN(c2ccc(F)cc2)CC1 | inconclusive: 89.1 µM [inhibitor, single point] | – |
| FC(F)(F)c1cccc(OCCN2CCN(Cc3ccccc3)CC2)c1 | active: 50.1 µM | – |
| CCOC(=O)c1[nH]c2c(c1C)C(=O)CC(c1ccco1)C2 (stereo unspecified) | active: 44.7 µM | – |
| CC(=O)Nc1ccc(S(=O)(=O)Nc2nc3ccccc3nc2Nc2ccc(O)cc2)cc1 | inconclusive: 50.1 µM [inhibitor, partial curve] | – |
| CC(C)c1ccc(N=C2NN=C(c3cccs3)CS2)cc1 | inconclusive: 39.8 µM [inhibitor, partial curve] | – |
| O=C(NCc1ccc2c(c1)OCO2)C(=S)N1CCOCC1 | – | inactive: 12.1% |
| COc1ccc(S(=O)(=O)Nc2c(C(=O)O)[nH]c3ccc(OC)cc23)c(OC)c1 | active: 44.7 µM | – |
| CCOc1ccc(/C=N/NC(=O)CN2CCSCC2)cc1 | active: 50.1 µM | – |
| Cc1ccc(CNS(=O)(=O)c2c(C)n(C)c(=O)n(C)c2=O)cc1 | inconclusive: 89.1 µM [inhibitor, single point] | – |
| COc1ccccc1S(=O)(=O)Nc1cccc(-c2nnc3n2CCCCC3)c1 | inconclusive: 100 µM [inhibitor, single point] | – |
| COCCn1c(C)cc(O)c(C(c2ccc(OC)cc2)N2CCCCC2)c1=O (stereo unspecified) | – | inactive: 9.74% |

| SMILES | Potency | activity change, negative = inhibition |
| --- | --- | --- |
| COc1ccccc1-c1nnc2n1N=C(c1ccc(O)c(O)c1)CS2 | active: 50.1 µM | – |
| Cc1ccc(NC(=S)N/N=C/c2c(Cl)cccc2Cl)c(C)c1 | inconclusive: 35.5 µM [inhibitor, full curve, poor fit] | – |
| O=C(N/N=C/c1c(F)c(F)c(F)c(F)c1F)c1ccc(Cn2cc(Br)cn2)o1 | inconclusive: 89.1 µM [inhibitor, single point] | – |
| CC(=O)C1=C(c2cccc([N+](=O)[O-])c2)N(C(C)=O)n2c(C)nnc2S1 | inconclusive: 31.6 µM [inhibitor, partial curve] | – |
| CCN1C(=O)CSc2ccc(C(=O)NCc3ccccc3)cc21 | inconclusive: 100 µM [inhibitor, single point] | – |
| COc1ccc(NC(=O)C(=O)Nc2ccc3nc4n(c(=O)c3c2)CCCCC4)c(OC)c1 | – | inactive: -1.43% |
| Cc1cccc(N2CCN(C(=O)c3ccc(N4CCCC4=O)cc3)CC2C)c1 (stereo unspecified) | – | inactive: -30% |
| COc1ccc(Cl)cc1S(=O)(=O)Nc1ccc2c(c1)n(C)c(=O)n2C | inactive | – |
| CCOc1ccc2oc(C(=O)NC3CCN(Cc4ccccc4)CC3)c(C)c2c1 | inconclusive: 79.4 µM [inhibitor, single point] | – |
| COc1ccc(-c2nnc(SCC(=O)NC3CCCc4ccccc43)n2N)cc1 (stereo unspecified) | – | inactive: -4.8% |
| CCCN1C(=O)/C(=C2\SC(N3CCCCC3)=NC2=O)c2ccccc21 | active: 15.8 µM | – |
| Cc1cc(C)c(S(=O)(=O)ON2C(=O)c3ccccc3C2=O)cc1C | inconclusive: 100 µM [inhibitor, single point] | – |
| CCc1ccccc1NC(=O)CSc1nnc(Cn2nnc3ccccc32)n1C | inconclusive: 3.55 µM [inhibitor, single point] | – |
| Cc1c(/C=C2\SC(=Nc3cccc(C(=O)O)c3)NC2=O)c2ccccc2n1C | – | inactive: -34% |
| CC(C)COP(=O)(c1ccc(N(C)C)cc1)C(O)c1ccc(N(C)C)cc1 (stereo unspecified) | – | inactive: -36.3% |
| O=C(COCc1cc(-c2ccc3c(c2)OCO3)on1)Nc1cccc(O)c1 | – | inactive: -2.06% |
| Cc1ccc(NN=Nc2nc3c([nH]2)c(=O)n(C)c(=O)n3C)cc1 | inconclusive: 79.4 µM [inhibitor, single point] | – |
| COc1ccc(C(=O)NC(=S)NCCc2ccccc2)cc1 | inconclusive: 39.8 µM [inhibitor, partial curve] | – |
| COc1ccc(/C=C(\NC(=O)c2ccccc2)C(=O)NCc2cccnc2)cc1 | – | inactive: 18.9% |
| Cn1cccc1/C=C1\SC(=S)N(NC(=O)c2cccc(Cl)c2)C1=O | active: 28.2 µM | – |
| Cc1cccc(Nc2nc(-c3ccc(O)c(O)c3)cs2)n1 | active: 50.1 µM | – |
| COc1ccc(N2C(=O)c3ccccc3NC23CCCC3)cc1 | – | inactive: -23% |
| CC(=O)c1cccc(NC(=O)Nc2cccs2)c1 | inconclusive: 89.1 µM [inhibitor, single point] | – |
| O=C1CCC2S/C(=C/Nc3ccc(C(F)(F)F)cc3)C(=O)N12 (stereo unspecified) | inconclusive: 89.1 µM [inhibitor, partial curve] | – |

| SMILES | Potency | activity change, negative = inhibition |
| --- | --- | --- |
| C=CCN1c2ccccc2[C@]23C[C@@H](C(=O)OC)N(C(=O)c4cccs4)C2=NC(C(=O)OC)=C(C(=O)OC)[C@H]13 | inconclusive: 25.1 µM [inhibitor, full curve] | – |
| C/C(CC(C)C)=N\NS(=O)(=O)c1ccc(C)c([N+](=O)[O-])c1 | – | inactive: 12.2% |
| C#CC(CC)(CC)NC(=O)c1cc(S(=O)(=O)N2CCCCC2)ccc1N1CCOCC1 | – | inactive: -5.29% |
| Cc1nnc(N2C(=O)C(=O)/C(=C(/O)c3ccc4c(c3)OCCO4)C2c2ccc([N+](=O)[O-])cc2)s1 (stereo unspecified) | inconclusive: 50.1 µM [inhibitor, partial curve] | – |
| COc1ccc(NC(=O)CCCCCN2C(=O)c3cccc([N+](=O)[O-])c3C2=O)c(OC)c1 | inconclusive: 100 µM [inhibitor, single point] | – |
| Cc1cccc(C(=O)Nc2nnc(S(=O)(=O)N3CCOCC3)s2)c1 | inconclusive: 5.62 µM [inhibitor, full curve, poor fit] | – |
| Cc1ccc(-c2nnc(Nc3cccc(Br)c3)c3ccccc23)cc1S(=O)(=O)N1CCN(C)CC1 | inconclusive: 79.4 µM [inhibitor, partial curve] | – |
| Cn1c(=O)c2c(SCC(=O)Nc3ccccc3F)nc(-c3ccccc3F)nc2n(C)c1=O | – | inactive: -4.03% |
| COc1ccc(S(=O)(=O)NNC(=O)Cc2csc(C)n2)cc1[N+](=O)[O-] | active: 79.4 µM | – |
| O=C(Nc1ccccc1)c1cc2c(-c3ccccc3)nn(-c3ccccc3)c2s1 | – | inactive: -2.83% |
| NS(=O)(=O)c1ccc(CNC(=O)CSc2nc3ccc(Cl)cc3[nH]2)cc1 | inconclusive: 89.1 µM [inhibitor, single point] | – |
| O=C(COc1ccc(F)cc1)NNC(=O)c1cc2ccccc2oc1=O | – | inactive: -3.28% |
| O=C(COC(=O)c1cn(-c2ccccc2)nc1-c1ccccc1)c1ccc([N+](=O)[O-])cc1 | inconclusive: 7.94 µM [inhibitor, full curve] | – |
| CCN(CC)S(=O)(=O)c1ccc(OC)c(NC(=O)/C=C/c2ccco2)c1 | active: 70.8 µM | – |
| COc1ccc(Nc2nc(C)c3ccccc3n2)cc1 | inconclusive: 89.1 µM [inhibitor, single point] | – |
| NC(=O)C1CCN(c2nc(-c3cccc(Cl)c3)cs2)CC1 | inconclusive: 39.8 µM [inhibitor, full curve, poor fit] | – |
| C#CCOc1c(Br)cc(C2C(C(=O)OC)=C(C)NC3=C2C(=O)c2ccccc23)cc1OCC (stereo unspecified) | inconclusive: 10 µM [inhibitor, full curve] | – |
| COCCNC(=O)c1onc(CSc2cccc(C)c2)c1C(=O)O | inconclusive: 79.4 µM [inhibitor, single point] | – |
| COc1ccc(NC(=O)CSc2ccc3nnc(-c4cccnc4)n3n2)c(OC)c1 | inconclusive: 63.1 µM [inhibitor, partial curve, poor fit] | – |
| CCOc1ccccc1Nc1nc(-c2sc(NC(=O)c3ccccc3)nc2C)cs1 | inconclusive: 56.2 µM [inhibitor, partial curve] | – |
| O=C(Cc1cccs1)NCc1cccc(Cl)c1 | – | inactive: 5.95% |
| COc1ccc(NC(=O)CNC(=O)Cn2ccc3ccccc3c2=O)c(OC)c1 | inconclusive: 89.1 µM [inhibitor, single point] | – |
| O=[N+]([O-])c1cccc(-c2nc3ccccc3s/c2=N/O)c1 | inconclusive: 31.6 µM [inhibitor, partial curve] | – |
